# Assay results as given in the supplement of paper PMC8728848.
# This is one part of the list.
# Key:
# Assay in all cases: glycan array binding signal (z-score within array); higher = stronger binding
# Conditions in all cases: glycan notation: IUPAC condensed, linker removed
# [1] = target: Fuc(a1-2)Gal
# Method in brief: (§1)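 Negative Z-scores can be read as non-binding. The Z-score is calculated within each array and then averaged across arrays of one protein sequence at different concentrations or buffers and across linkers. Arrays, 3228 in all, were curated from the Consortium for Functional Glycomics database and kept only where the protein sequence was available.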
# [2] = target: Fuc(a1-2)Gal(b1-3)GalNAc
# Method in brief: as §1
# [3] = target: Fuc(a1-2)Gal(b1-3)GalNAc(a1-3)[Fuc(a1-2)]Gal(b1-4)Glc
# Method in brief: as §1
# [4] = target: Fuc(a1-2)Gal(b1-3)GalNAc(a1-3)[Fuc(a1-2)]Gal(b1-4)GlcNAc
# Method in brief: as §1
# [5] = target: Fuc(a1-2)Gal(b1-3)GalNAc(b1-3)Gal
# Method in brief: as §1
# [6] = target: Fuc(a1-2)Gal(b1-3)GalNAc(b1-3)Gal(a1-4)Gal(b1-4)Glc
# Method in brief: as §1
# [7] = target: Fuc(a1-2)Gal(b1-3)GalNAc(b1-4)[Neu5Ac(a2-3)]Gal(b1-4)Glc
# Method in brief: as §1
# [8] = target: Fuc(a1-2)Gal(b1-3)GlcNAc
# Method in brief: as §1
# [9] = target: Fuc(a1-2)Gal(b1-3)GlcNAc(b1-2)Man(a1-3)[Fuc(a1-2)Gal(b1-3)GlcNAc(b1-2)Man(a1-6)]Man(b1-4)GlcNAc(b1-4)GlcNAc
# Method in brief: as §1
# [10] = target: Fuc(a1-2)Gal(b1-3)GlcNAc(b1-2)Man(a1-3)[Fuc(a1-2)Gal(b1-3)GlcNAc(b1-2)Man(a1-6)]Man(b1-4)GlcNAc(b1-4)[Fuc(a1-6)]GlcNAc
# Method in brief: as §1
# [11] = target: Fuc(a1-2)Gal(b1-3)GlcNAc(b1-3)Gal(b1-4)Glc
# Method in brief: as §1
# [12] = target: Fuc(a1-2)Gal(b1-3)GlcNAc(b1-3)GalNAc
# Method in brief: as §1
# [13] = target: Fuc(a1-2)Gal(b1-3)GlcNAc(b1-3)[Fuc(a1-2)Gal(b1-3)GlcNAc(b1-6)]GalNAc
# Method in brief: as §1
# [14] = target: Fuc(a1-2)Gal(b1-3)GlcNAc(b1-3)[Gal(b1-4)GlcNAc(b1-6)]Gal(b1-4)Glc
# Method in brief: as §1
# [15] = target: Fuc(a1-2)Gal(b1-3)GlcNAc(b1-3)[Neu5Ac(a2-6)Gal(b1-4)GlcNAc(b1-6)]Gal(b1-4)Glc
# Method in brief: as §1
# [16] = target: Fuc(a1-2)Gal(b1-3)GlcNAc6S
# Method in brief: as §1
# [17] = target: Fuc(a1-2)Gal(b1-3)[Fuc(a1-4)]GlcNAc
# Method in brief: as §1
# [18] = target: Fuc(a1-2)Gal(b1-3)[Fuc(a1-4)]GlcNAc(b1-2)Man(a1-3)[Fuc(a1-2)Gal(b1-3)[Fuc(a1-4)]GlcNAc(b1-2)Man(a1-3)]Man(b1-4)GlcNAc(b1-4)GlcNAc
# Method in brief: as §1
# [19] = target: Fuc(a1-2)Gal(b1-3)[Fuc(a1-4)]GlcNAc(b1-2)Man(a1-3)[Fuc(a1-2)Gal(b1-3)[Fuc(a1-4)]GlcNAc(b1-2)Man(a1-6)]Man(b1-4)GlcNAc(b1-4)[Fuc(a1-6)]GlcNAc(b1-4)[Fuc(a1-6)]GlcNAc
# Method in brief: as §1
# [20] = target: Fuc(a1-2)Gal(b1-3)[Fuc(a1-4)]GlcNAc(b1-3)[Fuc(a1-3)[Gal(b1-4)]GlcNAc(b1-6)]Gal(b1-4)Glc
# Method in brief: as §1
# [21] = target: Fuc(a1-2)Gal(b1-3)[Fuc(a1-4)]GlcNAc(b1-3)[Gal(b1-4)GlcNAc(b1-6)]Gal(b1-4)Glc
# Method in brief: as §1
# [22] = target: Fuc(a1-2)Gal(b1-4)Fuc(a1-3)]GlcNAc(b1-2)Man(a1-3)[Fuc(a1-2)Gal(b1-4)[Fuc(a1-3)]GlcNAc(b1-2)Man(a1-6)]Man(b1-4)GlcNAc(b1-4)GlcNAc
# Method in brief: as §1
# [23] = target: Fuc(a1-2)Gal(b1-4)Glc
# Method in brief: as §1
# [24] = target: Fuc(a1-2)Gal(b1-4)Glc6S
# Method in brief: as §1
# [25] = target: Fuc(a1-2)Gal(b1-4)GlcNAc
# Method in brief: as §1
# [26] = target: Fuc(a1-2)Gal(b1-4)GlcNAc(b1-2)Man
# Method in brief: as §1
# [27] = target: Fuc(a1-2)Gal(b1-4)GlcNAc(b1-2)Man(a1-3)[Fuc(a1-2)Gal(b1-4)GlcNAc(b1-2)Man(a1-6)]Man(b1-4)GlcNAc(b1-4)GlcNAc
# Method in brief: as §1
# [28] = target: Fuc(a1-2)Gal(b1-4)GlcNAc(b1-2)Man(a1-3)[Fuc(a1-2)Gal(b1-4)GlcNAc(b1-2)Man(a1-6)]Man(b1-4)GlcNAc(b1-4)[Fuc(a1-6)]GlcNAc
# Method in brief: as §1
# [29] = target: Fuc(a1-2)Gal(b1-4)GlcNAc(b1-2)[Fuc(a1-2)Gal(b1-4)GlcNAc(b1-4)]Man(a1-3)[Fuc(a1-2)Gal(b1-4)GlcNAc(b1-2)Man(a1-6)]Man(b1-4)GlcNAc(b1-4)GlcNAc
# Method in brief: as §1
# [30] = target: Fuc(a1-2)Gal(b1-4)GlcNAc(b1-3)Gal(b1-4)GlcNAc
# Method in brief: as §1
binder,measurement,setting,value
"CrataBL (Crataeva tapia), C0HJA4 (protein) AILTGVPYYILPSTSRAGFSPDNLRKNTSQLSCPLDLITQLRFPRRIGVPVIFTPQNSSLKVVPLSHNLNIHTCSDLWFCPESKIWTVKSSLTHGGSVVTTGGTFRSLGSWFRIERHGDSYKLVHCPRGSTPCRDVGIETVGGGGRRYLAPRDRPLAVRFTRASG",glycan array binding signal (z-score),[1],-0.326
same,glycan array binding signal (z-score),[2],-0.477
same,glycan array binding signal (z-score),[3],-0.439
same,glycan array binding signal (z-score),[4],-0.334
same,glycan array binding signal (z-score),[5],0.106
same,glycan array binding signal (z-score),[6],-0.345
same,glycan array binding signal (z-score),[7],-0.406
same,glycan array binding signal (z-score),[8],-0.275
same,glycan array binding signal (z-score),[9],-0.397
same,glycan array binding signal (z-score),[10],-0.496
same,glycan array binding signal (z-score),[11],-0.296
same,glycan array binding signal (z-score),[12],-0.444
same,glycan array binding signal (z-score),[13],0.24
same,glycan array binding signal (z-score),[14],-0.399
same,glycan array binding signal (z-score),[15],-0.486
same,glycan array binding signal (z-score),[16],-0.217
same,glycan array binding signal (z-score),[17],-0.53
same,glycan array binding signal (z-score),[18],-0.483
same,glycan array binding signal (z-score),[19],-0.192
same,glycan array binding signal (z-score),[20],-0.526
same,glycan array binding signal (z-score),[21],-0.53
same,glycan array binding signal (z-score),[22],-0.396
same,glycan array binding signal (z-score),[23],-0.464
same,glycan array binding signal (z-score),[24],0.531
same,glycan array binding signal (z-score),[25],-0.486
same,glycan array binding signal (z-score),[26],-0.091
same,glycan array binding signal (z-score),[27],-0.459
same,glycan array binding signal (z-score),[28],-0.533
same,glycan array binding signal (z-score),[29],-0.479
same,glycan array binding signal (z-score),[30],-0.497
